Drawing on patent US20190330347A1 (TAIZHOU HANZHONG BIOPHARMACEUTICS, published 2019), this text covers EC50 for one molecule.

For orientation: EC50 means the midpoint of the concentration-response curve. Read a high EC50 as weaker potency.

Experiment [1] has as its target T1, PD-1-hIgGFc antigen (UniProt Q15116 fragment, limits assumed). Nature of the experiment: competitive ELISA on coated PD-1-hIgGFc, competitor PDL2-his tag. How it is done: A 96-well ELISA plate was coated with PD-1-hIgGFc antigen in a concentration of 1.0 μg/ml (100 μl per well) by incubation at 4° C. overnight.
After the 96-well ELISA plate was washed with the PBST buffer for five times and gently patted to dryness, HRP-conjugated monoclonal mouse anti-his tag as a secondary antibody in 1:750 dilution (50 μl per well) was added for incubation at 37° C. for 1 hour.
Background: In an ELISA, binding on a coated surface is turned into a signal by an enzyme label.

The target in experiment [2] is T2, PD-1-his antigen (UniProt Q15116 fragment, limits assumed).
T2 construct: Human is implied, since cynomolgus and rat PD1 are called non-human antigens
In words: ELISA on coated PD-1-his. As for the experimental part:
An ELISA plate was coated with PD-1-his antigen in a concentration of 0.25 μg/ml (100 μl per well) by incubation at 4° C. overnight.
The ELISA plate coated with the PD-1-his antigen was blocked with 1% BSA in the PBS buffer at 37° C. for 2 hours and washed with 1 xPBST buffer containing 1% Tween-20 for three times, with gently patting to dryness.
The absorbance of solution in each well was measured with the microplate reader at a wavelength of 450 nm.

In experiment [3] the target is T1, PD-1-hIgGFc antigen. Nature of the experiment: competitive ELISA on coated PD-1-hIgGFc, competitor PDL1-mIgG2aFc. As for the experimental part:
A 96-well ELISA plate was coated with PD-1-hIgGFc antigen in a concentration of 0.5 μg/ml (50 μl per well) by incubation at 4° C. overnight.

T1 sequence (Q15116 25-167 limits assumed): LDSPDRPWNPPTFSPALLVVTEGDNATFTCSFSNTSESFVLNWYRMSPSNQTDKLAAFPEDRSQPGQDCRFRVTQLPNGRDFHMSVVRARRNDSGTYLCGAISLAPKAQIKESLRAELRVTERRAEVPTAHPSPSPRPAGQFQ

B1: humanized H2L2 antibody (wild-type IgG-like antibody H2L2 against PD-1) (antibody)
heavy: EVQLVQSGGGLVQPGGSLKLSCAASGFTFSSYGMSWVRQAPGKGLDWVATISGGGRDTYYPDSVKGRFTISRDNSKNNLYLQMNSLRAEDTALYYCARQKGEAWFAYWGQGTLVTVSSASTKGPSVFPLAPCSRSTSESTAALGCLVKDYFPEPVTVSWNSGALTSGVHTFPAVLQSSGLYSLSSVVTVPSSSLGTKTYTCNVDHKPSNTKVDKRV[human IgG4 Fc with S228P (EU numbers) left out here]
light: DIVLTQSPASLAVSPGQRATITCRASESVDNYGISFMNWFQQKPGQPPKLLIYAASNKGTGVPARFSGSGSGTDFTLNINPMEENDTAMYFCQQSKEVPWTFGGGTKLEIKRTVAAPSVFIFPPSDEQLKSGTASVVCLLNNFYPREAKVQWKVDNALQSGNSQESVTEQDSKDSTYSLSSTLTLSKADYEKHKVYACEVTHQGLSSPVTKSFNRGEC
notes: It says H2L2 differs from H8L2 only at heavy chain positions 254, 308 and 434; Those numbers are EU numbers; also called 18A10 H2L2; wild-type H2L2
Take B1: the EC50 in experiment [1] was determined as 1580 pM; in experiment [2], 50 pM; in experiment [3], 783 pM.
